Assay results taken from PubChem BioAssay (NCATS).
Several values for one entry are separate records, joined by “and”; a condition that tells them apart may be missing. Identical values can stand only once. This list was built around the results that the source calls inconclusive (neither active nor inactive); the mix of calls is not that of the screen. Potencies of inconclusive entries are doubtful fits and often do not repeat. Activity calls are given as the source filed them. Unless noted, calls follow the shape of the dose curve; as a rule, active = well fitted inhibition curve with a large enough effect; inconclusive = small, poorly fitted or top-dose-only effect; inactive = no such curve, though single readings can be large or run the other way.

How the values were obtained:
[1] = molecular target: Aldehyde dehydrogenase, mitochondrial (Homo sapiens) (UniProt P05091); assay: qHTS for Inhibitors of the Aldehyde Dehydrogenase Family (ALDH2) Confirmatory screens (AID 2061303; active = well fitted inhibition curve with a large enough effect; inconclusive = small, poorly fitted or top-dose-only effect; inactive = no such curve, though single readings can be large or run the other way; title and protocol of this record describe different tests; also: nearly all actives have a fitted effect of over 45% in size); details: ALDH inhibition qHTS; activity change, negative = inhibition: at 45.4 µM (top of the series)
[2] = qHTS for Inhibitors of the Aldehyde Dehydrogenase Family (ALDH1A2, ALDH1A3, ALDH2, ALDH3A1) (AID 2061307); details: ALDH inhibition qHTS; activity change, negative = inhibition: at 50.3 µM (top of the series) unless noted; also: nearly all actives have a fitted effect of over 50% in size; as to Potency: test system not described further here
[3] = molecular target: Retinaldehyde dehydrogenase 3 (Homo sapiens) (UniProt P47895); assay: qHTS for Inhibitors of the Aldehyde Dehydrogenase Family (ALDH1A3) Confirmatory screens (AID 2061311); details: activity change, negative = inhibition: at 46 µM (top of the series); also: nearly all actives have a fitted effect of over 60% in size
[4] = molecular target: Retinal dehydrogenase 2 (Homo sapiens) (UniProt O94788); assay: qHTS for Inhibitors of the Aldehyde Dehydrogenase Family (ALDH1A2) Confirmation screens (AID 2061314); details: activity, negative = inhibition: at 45.9 µM (top of the series) unless noted; also: nearly all actives have a fitted effect of over 65% in size
[5] = molecular target: Aldehyde dehydrogenase 1A1 (Homo sapiens) (UniProt P00352); assay: qHTS for Inhibitors of the Aldehyde Dehydrogenase Family (ALDH1A1) Confirmatory screens (AID 2061316); details: activity change, negative = inhibition: at 47.3 µM (top of the series); also: nearly all actives have a fitted effect of over 65% in size
[6] = molecular target: Retinaldehyde dehydrogenase 3 (Homo sapiens) (UniProt P47895); assay: qHTS for Inhibitors of the Aldehyde Dehydrogenase Family (ALDH1A3) Primary screen (AID 2061315); details: ALDH inhibition qHTS; activity change, negative = inhibition: at 56 µM (top of the series) unless noted
Potency is read from the fitted curve at half-maximal effect; tags tell the direction and shape of the fitted curve.

| Compound | Potency [1] | Potency [2] | Potency [3] | Potency [4] | Potency [5] | Potency [6] |
| --- | --- | --- | --- | --- | --- | --- |
| CC(C)NC(=O)c1nc(-c2cccnc2)c2cnccn12 | inactive | inconclusive: 0.224 µM [inhibitor, full curve, poor fit] | inconclusive: 0.282 µM [inhibitor, full curve, poor fit] | inconclusive: 29.6 µM [inhibitor, partial curve] | inactive |  |
| COc1ccc(Cn2c(=O)[nH]c3cc(C(=O)N4CCN(c5ccccc5)CC4)ccc3c2=O)cc1 | inactive | inconclusive: 5.62 µM [inhibitor, full curve, poor fit] | inactive | inactive | inactive |  |
| CCC(=O)Nc1ccc(OCc2cc(C3Nc4ccccc4C(=O)N3Cc3ccccc3)ccc2OC)cc1 (stereo not given) | inconclusive: 2.24 µM [inhibitor, partial curve, poor fit] | inconclusive: 0.355 µM [inhibitor, full curve, poor fit] | inconclusive: 31.8 µM [inhibitor, partial curve] | inconclusive: 25.2 µM [inhibitor, partial curve] | inactive |  |
| COc1ccc(S(=O)(=O)N2CCN(C(=O)c3ccc([N+](=O)[O-])o3)CC2)cc1 | inactive | inactive | inactive | inactive | active: 10 µM |  |
| O=C(O)c1ccc(-c2noc(-c3ccccc3F)n2)cc1 | inconclusive: 8.91 µM [inhibitor, partial curve, poor fit] | active: 3.98 µM and active: 1.2 µM | active: 0.565 µM |  | inconclusive: 25.2 µM [inhibitor, partial curve, poor fit] | inconclusive: 562 nM [inhibitor, full curve] and inconclusive: 355 nM [inhibitor, full curve, poor fit] and inconclusive: 447 nM [inhibitor, full curve, poor fit] |
| Cc1nnc2ccc(N3CCC(NC(=O)c4cccc(C(F)(F)F)c4)CC3)nn12 | inconclusive: 0.631 µM [inhibitor, full curve, poor fit] | inactive | inactive | inconclusive: 32.4 µM [inhibitor, partial curve, poor fit] | inactive |  |
| O=C1c2ccccc2C(=O)N1c1ncccc1O | inactive | inactive | inactive | inconclusive: 31.8 µM [inhibitor, single point] | inactive |  |
| Fc1ccccc1CNc1cc(Cl)nc2ccnn12 | inconclusive: 15.8 µM [inhibitor, full curve] | inconclusive: 15.8 µM [inhibitor, full curve, poor fit] | inconclusive: 22.4 µM [inhibitor, partial curve] | inconclusive: 15.8 µM [inhibitor, partial curve] | inconclusive: 22.4 µM [inhibitor, full curve] |  |
| Cc1c(C(=O)OCC(C)(C)C)[nH]c2c1C(=O)CC(c1ccco1)C2 (stereo not given) | inconclusive: 25.1 µM [inhibitor, partial curve] | inconclusive: 2.24 µM [inhibitor, full curve, poor fit] | inconclusive: 22.5 µM [inhibitor, partial curve] | inconclusive: 3.18 µM [inhibitor, full curve, poor fit] | active: 0.896 µM |  |
| CCCCc1ccc(NC(=O)CSc2nc3ccccc3nc2N2CCOCC2)cc1 | inactive | inactive | inconclusive: 8.91 µM [inhibitor, full curve] | inconclusive: 18.2 µM [inhibitor, partial curve] | inactive |  |
| Cc1ccc(-c2ccc(=O)n(CC(=O)N(C)C(C)c3ccco3)c2)cc1 (stereo not given) | inconclusive: 8.96 µM [inhibitor, partial curve, poor fit] | inconclusive: 7.12 µM [inhibitor, partial curve] | inconclusive: 20 µM [inhibitor, partial curve] | active: 2.01 µM | inconclusive: 12.7 µM [inhibitor, partial curve] |  |
| CC(=O)NC(C)c1cc(F)c2cccnc2c1O (stereo not given) | inconclusive: 3.57 µM [inhibitor, full curve, poor fit] | active: 2.52 µM | active: 11.3 µM | active: 10.1 µM | inconclusive: 4.49 µM [inhibitor, partial curve] |  |
| COc1ncc(Nc2ncc([C@@H](C)N3CCN(S(C)(=O)=O)CC3)cc2-c2nc(C)nc(N)n2)cc1F | inconclusive: 2.25 µM [inhibitor, full curve, poor fit] | inconclusive: 14.1 µM [inhibitor, single point] | active: 10 µM | inconclusive: 3.18 µM [inhibitor, partial curve] | inconclusive: 6.34 µM [inhibitor, partial curve] |  |
| Cc1cccc(-n2cnc3cc(C(=O)N4CCC(Br)CC4)ccc32)c1 | inactive | inactive | inconclusive: 28.3 µM [inhibitor, partial curve] |  | inconclusive: 31.8 µM [inhibitor, single point] | inactive |
